In all, about 360,000 compounds went through this assay and about 7,500 (2.1%) were called active. This list was built around the results that the source calls inconclusive (neither active nor inactive); the mix of calls is not that of the screen. The call rests on the fitted dose curve; in most records, active means well fitted cell-killing curve with a large enough effect; inconclusive means small, poorly fitted or top-dose-only effect, or effect the other way, or another doubt; inactive means no such curve, though single readings can be large or run the other way. Potencies of inconclusive entries are left out as doubtful fits.
Assay: qHTS for induction of synthetic lethality in tumor cells producing 2HG: qHTS for the HT-1080-IDH1KD cell line
Details: HT-1080 IDH1 knockdown viability, ATP luminescence, 48 h; series mostly up to 46.1 µM
In short: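 Assay cells: HT-1080 with IDH1 knockdown, 750 per well, RPMI/5% FBS. Exposure: 48 h at 37 °C following 2 h pre-incubation. Read: CellTiter-Glo luminescence; fitted concentration-response, curve class assigned.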
With `CCOc1ccc(NC(=O)CN2C(=O)NC(C)(c3ccc(OC(F)F)cc3)C2=O)cc1` (stereo not given) the Potency was active: 18.4 µM. For `Cc1ccc(C2=NN(S(=O)(=O)c3ccccc3)C(c3ccccc3O)C2)cc1` (stereo not given), the Potency was inconclusive [cytotoxic, single point]. With `Cc1cc(-n2c(C)cc(C(=O)CSc3nnnn3-c3ccccc3)c2C)no1` the Potency was inconclusive [cytotoxic, single point]. In the case of `O=C(CN1CCN(S(=O)(=O)c2ccc(F)c(Cl)c2)CC1)N1CCOCC1`, the Potency was “inactive”. With `CCOC(=O)C1=CN(Cc2ccco2)S(=O)(=O)NC1c1cccc(OC)c1` (stereo not given) the Potency was “inactive”. For `Cc1ccc2nc(NC(=O)CCNS(=O)(=O)c3ccc(Br)s3)sc2c1`, the Potency was inconclusive [cytotoxic, single point]. With `COc1ccc(CN(C)S(=O)(=O)c2nnc(NC(=O)c3cccc(C)c3)s2)cc1OC` the Potency was “inactive”. For `O=Cc1ccc2ccc3cccnc3c2n1`, the Potency was inconclusive [cytotoxic, single point]. For `CN(C)c1nc(OCCNC(=O)Nc2ccccc2)nc(N2CCOCC2)n1`, the Potency was “inactive”. In the case of `CCOC(=O)C1(C)CCCN1C(=O)c1cc(F)ccc1C` (stereo not given), the Potency was “inactive”. For `COc1ccc(C2/C=C\CN(C(=O)C3CC3)[C@H](Cc3ccccc3)C(=O)N2Cc2ccc(F)cc2)cc1` (stereo not given in full), the Potency was inconclusive [cytotoxic, single point]. In the case of `CC(=O)[C@@]1(O)CC[C@H]2[C@@H]3C[C@H](C)C4=CC(=O)C=C[C@]4(C)[C@@]3(F)[C@@H](O)C[C@@]21C`, the Potency was inconclusive [rising, full curve, poor fit]. With `Cc1cc(C)c2nc(N(CCCN(C)C)C(=O)c3ccc4c(c3)CCCC4)sc2c1` the Potency was inconclusive [cytotoxic, single point]. In the case of `COc1ccc(NS(=O)(=O)c2cccc(C(=O)NC3CCN(Cc4ccccc4)CC3)c2)cc1`, the Potency was inconclusive [cytotoxic, partial curve]. For `O=C1/C(=C\c2cccnc2)CN(Cc2ccccc2)C/C1=C\c1cccnc1`, the Potency was active: 1.84 µM. For `Cc1cc(C#Cc2c(-c3ccccc3)n(C)c3ccccc23)ccc1F`, the Potency was “inactive”. In the case of `COc1ccc(C(=O)OCC(=O)N2CCN(C(=O)c3ccco3)CC2)cc1OC`, the Potency was “inactive”. In the case of `O=C1CCCC(=O)N1c1ccc(F)cc1`, the Potency was “inactive”. In the case of `O=C1c2ccccc2C2=Nc3ccccc3SC(c3cccc(F)c3)C12` (stereo not given), the Potency was inconclusive [cytotoxic, single point]. In the case of `CCOC(=O)c1ccc(NC(=O)c2nn(C)cc2Br)cc1`, the Potency was inconclusive [cytotoxic, single point].
Potency means the concentration at half of the fitted maximal effect; tags describe the fitted curve by direction and shape.
